Some of the results follow. The energies were worked out here from pooled read counts, against the library average; single values are noisy.
Biological target: T1, Pho4 (S. cerevisiae) (UniProt P07270)
T1 sequence: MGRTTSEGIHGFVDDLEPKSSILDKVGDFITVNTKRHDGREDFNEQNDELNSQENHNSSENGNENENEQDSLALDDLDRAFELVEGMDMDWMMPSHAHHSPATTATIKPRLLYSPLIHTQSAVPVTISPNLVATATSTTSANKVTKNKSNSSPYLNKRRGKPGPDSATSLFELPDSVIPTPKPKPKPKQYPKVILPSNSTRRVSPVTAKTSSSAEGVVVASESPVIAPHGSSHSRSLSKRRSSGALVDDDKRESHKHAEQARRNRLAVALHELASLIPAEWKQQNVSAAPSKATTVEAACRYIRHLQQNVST
Experiment: relative binding free energy (BET-seq); higher = weaker binding
Settings: reference: library average

Row | Sequence | relative binding free energy
1 | CCGTTCACGTGGGGTT | 0.16 kcal/mol
2 | AGCGGCACGTGTAGGT | -0.04 kcal/mol
3 | CTCGGCACGTGGGCGG | -0.21 kcal/mol
4 | ATTGCCACGTGATTGT | 0.03 kcal/mol
5 | ACGTTCACGTGGGTTA | 0.11 kcal/mol
6 | GGTGACACGTGGTTGA | 0.08 kcal/mol
7 | TATTTCACGTGCGGGG | 0.29 kcal/mol
8 | CGGGGCACGTGATTTG | 0.01 kcal/mol
9 | GGGGACACGTGAGGCG | 0.18 kcal/mol
10 | AGTCTCACGTGTGTTT | 0.14 kcal/mol
11 | GGGGGCACGTGATTTC | 0.07 kcal/mol
12 | AGTTACACGTGTTATT | 0.11 kcal/mol
13 | ATGTTCACGTGTTTTT | 0.36 kcal/mol
14 | CGGGACACGTGGTAAG | -0.03 kcal/mol
15 | TATTGCACGTGGTCGT | -0.14 kcal/mol
16 | TGCGGCACGTGTGCAG | 0.03 kcal/mol
17 | AAGGCCACGTGGGGGG | -0.09 kcal/mol
18 | TTATTCACGTGGACGT | 0.31 kcal/mol
19 | TGGTGCACGTGCACTG | 0 kcal/mol
20 | GTACGCACGTGGGTAA | -0.21 kcal/mol
21 | CGCGGCACGTGAGGAG | 0.03 kcal/mol
22 | GTGTTCACGTGAGTAT | 0.46 kcal/mol
23 | ATCCTCACGTGTGTTG | 0.3 kcal/mol

Row | Sequence | relative binding free energy
24 | TGGTTCACGTGAGTTT | 0.46 kcal/mol
25 | AGACGCACGTGGAGTG | -0.2 kcal/mol
26 | AGGTGCACGTGGCTTA | -0.15 kcal/mol
27 | GGAAGCACGTGGAGTT | -0.15 kcal/mol
28 | GTCAACACGTGTGGTG | 0.17 kcal/mol
29 | GGTGGCACGTGTTTGG | 0.01 kcal/mol
30 | TATAGCACGTGAGGTG | 0.15 kcal/mol
31 | TGTGGCACGTGTCTGG | -0.06 kcal/mol
32 | GACTACACGTGGTGTT | 0.06 kcal/mol
33 | GTGTTCACGTGGGAAA | 0.19 kcal/mol
34 | GTGATCACGTGTTTAT | 0.03 kcal/mol
35 | GAGTGCACGTGACTGG | 0.05 kcal/mol
36 | TTAGGCACGTGAATAG | 0.17 kcal/mol
37 | GGTAACACGTGTTATA | -0.02 kcal/mol
38 | GGGTGCACGTGCGAAT | 0.08 kcal/mol
39 | GCGAGCACGTGGGGGC | -0.19 kcal/mol
40 | AATTACACGTGGGTAC | 0.2 kcal/mol
41 | ATTGACACGTGAATGG | 0.23 kcal/mol
42 | GATTGCACGTGTTTAG | 0.2 kcal/mol
43 | ATTGTCACGTGATAGT | 0.15 kcal/mol
44 | CTTTGCACGTGTATGG | 0.06 kcal/mol
45 | ATTGGCACGTGTGATC | 0.04 kcal/mol
46 | GGGTGCACGTGGCTAG | -0.07 kcal/mol

Row | Sequence | relative binding free energy
47 | TATAGCACGTGCGTAG | -0.1 kcal/mol
48 | GTATTCACGTGTAGCT | 0.31 kcal/mol
49 | CGTAGCACGTGTTAGG | -0.04 kcal/mol
50 | GACGTCACGTGATGGT | 0.27 kcal/mol
51 | GTCTGCACGTGTGTAA | 0.1 kcal/mol
52 | GGGGGCACGTGGCTTT | -0.13 kcal/mol
53 | GTGCACACGTGTATGG | 0.01 kcal/mol
54 | GAGGTCACGTGATGGG | 0.37 kcal/mol
55 | ATTAACACGTGGTTGA | -0.07 kcal/mol
56 | ATATGCACGTGTGGGT | -0.02 kcal/mol
57 | GTTAGCACGTGCTTGT | -0.1 kcal/mol
58 | TTCAACACGTGGTTTA | -0.14 kcal/mol
59 | ATGGCCACGTGGGCTG | -0.26 kcal/mol
60 | GGTTTCACGTGATAGC | 0.51 kcal/mol
61 | TGATTCACGTGGGGCC | 0.11 kcal/mol
62 | TATCGCACGTGTTTGA | -0.06 kcal/mol
63 | TTGTACACGTGCCTTT | 0.07 kcal/mol
64 | CGATGCACGTGGTGGA | -0.07 kcal/mol
65 | GGGTACACGTGCTCGT | 0.12 kcal/mol
66 | GAGTACACGTGTGTGC | 0.16 kcal/mol
67 | TTTTACACGTGCTATG | 0.05 kcal/mol
68 | ATTTGCACGTGTCTTA | -0.04 kcal/mol
69 | AGCGGCACGTGGGGGG | -0.25 kcal/mol

Row | Sequence | relative binding free energy
70 | GGTGTCACGTGTGCGG | 0.15 kcal/mol
71 | GGGAGCACGTGGTTAC | -0.02 kcal/mol
72 | TACTTCACGTGTTTTT | 0.28 kcal/mol
73 | GACGACACGTGGGGGG | -0.19 kcal/mol
74 | GAGTACACGTGTGTTG | 0.05 kcal/mol
75 | TAGTGCACGTGTTTGA | -0.01 kcal/mol
76 | GTTTTCACGTGTGTCT | 0.35 kcal/mol
77 | GAGAGCACGTGCTTGG | -0.11 kcal/mol
78 | ACCGGCACGTGCAGGG | 0.06 kcal/mol
79 | TAGTTCACGTGGCTCG | 0.28 kcal/mol
80 | GTTCTCACGTGTACGT | 0.28 kcal/mol
81 | CGGTTCACGTGTGTTT | 0.33 kcal/mol
82 | TCTTACACGTGGTTGT | 0.14 kcal/mol
83 | GGGGCCACGTGTAGTT | -0.05 kcal/mol
84 | GTCTGCACGTGTCGTT | 0.22 kcal/mol
85 | TATCGCACGTGTGTTG | -0.1 kcal/mol
86 | CGTTCCACGTGGGGTT | -0.28 kcal/mol
87 | AGTAGCACGTGGAGCA | 0.1 kcal/mol
88 | AGATTCACGTGATCGT | 0.33 kcal/mol
89 | ATACTCACGTGGGTCG | 0.1 kcal/mol
90 | CGGTTCACGTGTGGAG | 0.33 kcal/mol
91 | GGTTGCACGTGTGTAG | -0.01 kcal/mol
92 | AGGTTCACGTGGGACA | 0.18 kcal/mol

Row | Sequence | relative binding free energy
93 | AGGGGCACGTGTACGT | -0.11 kcal/mol
94 | TGAATCACGTGGGGTA | 0.02 kcal/mol
95 | AAAAGCACGTGGGGAT | -0.11 kcal/mol
96 | TGGGTCACGTGGCGAA | -0.12 kcal/mol
97 | AGGTTCACGTGGTGTG | 0.16 kcal/mol
98 | ATGTGCACGTGGGTTT | -0.13 kcal/mol
99 | TTGGGCACGTGATCGC | -0.02 kcal/mol
100 | TTTAACACGTGATTAA | 0.23 kcal/mol
101 | CATATCACGTGGGGGG | -0.08 kcal/mol
102 | CTTTCCACGTGTGTAT | 0.13 kcal/mol
103 | TTTATCACGTGTGCTG | 0.13 kcal/mol
104 | GGCTTCACGTGCTTGG | 0.38 kcal/mol
105 | GGCTTCACGTGGTGAG | 0.25 kcal/mol
106 | GGTGGCACGTGAATTT | 0.32 kcal/mol
107 | CTGTTCACGTGTGGAC | 0.4 kcal/mol
108 | TTGAGCACGTGTATCG | -0.11 kcal/mol
109 | AAATACACGTGTGGGG | 0.07 kcal/mol
110 | GGCTTCACGTGTGCTG | 0.26 kcal/mol
111 | GTGCACACGTGCCGGT | 0.15 kcal/mol
112 | AGTTTCACGTGGGAGA | 0.31 kcal/mol
113 | GATGTCACGTGTCAGG | 0.13 kcal/mol
114 | GGTGGCACGTGGGAAC | -0.04 kcal/mol
115 | TTGCTCACGTGTAGAA | 0.28 kcal/mol
